# From the supplement of paper PMC11417369
# This is one part of the list.
# Test system: PfAP2-HC AP2 domain (GST-tagged)
# Assay: gcPBM binding intensity (ln(normalized median fluorescence intensity)); higher = stronger DNA binding
# Summary of the method: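 Probes on an Agilent 4 × 180k array were primer-extended, double-stranded and 36 bp long, taken from intergenic genomic regions, with negative controls added. GST-tagged P. falciparum DNA-binding domains from E. coli, about 25 μg on average, were applied to the array for 1 h in 1× PBS containing 1% milk, 0.2 mg/ml BSA, 0.5% salmon testes DNA and 0.03% Triton X-100. Binding intensity, obtained after Alexa488 anti-GST antibody detection and a 488 nm scan, is the highest Masliner-normalised natural-log median intensity across replicate spots of either probe orientation.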
row,Sequence,gcPBM binding intensity (ln)
1,AAAAAGGAAATAATAACACACATTAATAATTATAAA [CACACA_site3401],9.85
2,TAAAAAGTTATATTCACACACATACACATATAAATA [CACACA_site6398],10.1
3,TTATTTTTTTTTTTTTGTACACAATTTGACACATTA [XGTACX_site7983],9.76
4,TTTATTTAATTATGTTGTACATGTAGGATTTATTTT [XGTACX_site7078],9.69
5,TTTTTTTTATTTTGTTGTACGCTTATTTGTATATAT [XGTACX_site7325],9.75
6,TTTATGTGTTATAAATGTACATAATATAATTCGTAT [XGTACX_site3845],9.58
7,TTATCTATAAATACGAGTACGCAAAATCATATAATA [XGTACX_site2447],9.58
8,TTTTAATATTAAGATGTCTTTTACGTTTATTTTGTA [CACACA_negctrl_site765],9.75
9,ATTTACGCGCTTATTACACACACATACAAATAAGGA [CACACA_site9157],10
10,TAATTATTTGCCCTTACTCTGAACATTCGGAATTTA [CACACA_negctrl_site1278],9.46
11,ATCTGCATATATATATGTACATATTTTAGAATGCAC [XGTACX_site708],9.63
12,TTCTTTTTAAATTACACACACATATAAATATGTATA [CACACA_site7618],9.94
13,TTTTTATAAAATTTTATGAGCTCGGAAAAAATAAAC [GTGCAC_negctrl_site637],9.48
14,TATATATAATATATATATATGGAAATTCTTTTAAAT [XGTACX_negctrl_site50],9.32
15,TGTATTATATGTAAATGTACATTTAATATTTTATAT [XGTACX_site4461],9.71
16,GTATGAAATTATAATAGTACATATAAATAAAAAAAA [XGTACX_site8955],9.85
17,CCACAAGTATATAGTAGTACAATTTTTTTCTCTTTA [XGTACX_site4403],9.44
18,ATATAAGGATAACCTAGTACATATTATATGAAACAA [XGTACX_site8459],9.88
19,TACGGTAAATAGTGTTGTACGATACAATTGTTTTCT [XGTACX_site8118],9.75
20,AAGGGGAAAAAAAAAAGTACACAAACATAGGATAAT [XGTACX_site377],9.74
21,CAATTAAAATGCAACGGTACACATAAAAAAAATAAA [XGTACX_site6216],9.81
22,AAAATAAATAAATAAATATATATATATATATATATA [TGCATGCA_negctrl_site558],9.49

row,Sequence,gcPBM binding intensity (ln)
1,TCTTTGTATATATGTTCATTTGTAATATATATTCAT [TGCATGCA_negctrl_site467],9.75
2,TATTTGTGAAGAAATTGTACTCATATCTACATTTAT [XGTACX_site2245],9.69
3,ATAATAATATAAAAATGTACATATATTTATAATTGT [XGTACX_site3429],9.73
4,ATTTTATTTTTTCACACACACATATATATATATATA [CACACA_site3334],10.1
5,CCCAGGAATATAAAATGTACATAAAAAATACAAATT [XGTACX_site1708],9.63
6,AGTACATTATAGAATACACACCTATACATTTATATA [CACACA_site6391],9.82
7,TTTTTTTTTTTTGGATGTACTTAATGAAAATGTTAC [XGTACX_site8980],9.42
8,TAAGCACAAGCACAAGCACACATTTATATATATATA [CACACA_site883],9.68
9,AATATAATATATATTAGTACATATATATATATATAT [XGTACX_site870],9.58
10,CCTCATATTATAGACACACACAAAAAAAATAAAAAA [CACACA_site180],9.98
11,TCATTATTATATAATTGTACATAATAATTATATCCA [XGTACX_site1801],9.58
12,ATGTATGTGTATATATGTACATAATATATATCTTTT [XGTACX_site8666],9.89
13,TGATTATTTTATATTTGTACACATATCATATAAAAA [XGTACX_site5868],9.48
14,ATGCAAACTAAAAGACGTACAGAAAAGTATCATACT [XGTACX_site8766],9.75
15,ACGTTTTTGAGTAGTACACACACAATAAGGATGGAT [CACACA_site9044],10
16,ACATAATATTGAAGAAGTACAAATTTTATTTATTAT [XGTACX_site4113],9.55
17,ATTATTATGTATTGCCGTACACATATTATCACAGAA [XGTACX_site3740],9.71
18,TCTTCATATATAATTGTACACACAAAAACGACATTG [CACACA_site8645],9.84
19,TATTATAATTAATATACACACGCTTATATATATATA [CACACA_site75],9.73
20,TATAAATAAACATTTACACACTCTTATAATAAATAT [CACACA_site1679],9.63
21,ACATGTACAGAAATTTATATATATATATATATATAT [CACACA_negctrl_site1584],9.74
22,TTATCATTTTTGGAATGTACTTACATTAAATATTTA [XGTACX_site4034],9.59

row,Sequence,gcPBM binding intensity (ln)
1,TATATGCAAAATGTCACACATGTGATAAATACATAT [CACACA_site4302],9.94
2,AACTAATAGTATATTACATGCAAAAGTAAAAGTAAA [TGCATGCA_site411],9.81
3,CTCACAATACTTACATGTACATATTATATATATAAA [XGTACX_site1880],9.79
4,GTTGAAATAAAATTAGTGCATATATAAATATATATA,9.52
5,ACTGAAAAAAGAAATACACACATTCTGGATCAGATA [CACACA_site7760],9.85
6,TCATTCTTGTGTTTATGTACACATATTTATATTGTA [XGTACX_site710],10.2
7,AAAGACAAAAGGAATTGTACATAATATATAAAATAT [XGTACX_site2923],9.73
8,AATTTTATTTAAAGTGCATGTAAAATTAAAACTTTT [TGCATGCA_site989],9.22
9,GGGAAACGATTTAATACACACACGTATTATATATAT [CACACA_site1160],10.1
10,ATATAAAATATGAGTAGTACATATTTTCTCATCTTA [XGTACX_site8595],9.56
11,CATTTTTTGTAAAATCGTACATATACATAAAGTGGT [XGTACX_site3423],9.49
12,CACAAAAGTAAGCACGCACACACAACATGAAATAAA [CACACA_site7938],10.5
13,TATGAATTTATCTACAACATTTGAAATAAATTAAAA [CACACA_negctrl_site79],9.35
14,TAAATAAATACATACACACACATACCTATATTTATA [CACACA_site7466],10.4
15,TTTTATAAAAACAAAAACAAAGGCACTTTCTAAAGA [XGTACX_negctrl_site130],9.58
16,AATATAAATATAAATATAAATATATATATATATATA [TGCATGCA_negctrl_site603],9.51
17,ATAATGTATATTATTGCACACATATATAAAATTATG [CACACA_site8280],9.84
18,TGTATACACATATGTACACACATATAGATGTATATG [CACACA_site7447],9.84
19,ATATAATAATATTATACATGCAAAATATGTTCTTCA [TGCATGCA_site115],9.62
20,AGACTATCATTTTTTTAACACACAAAAAAAATAAAA [CACACA_site9173],9.59
21,ATCGCATATACATTATATTTTATAATAATTATTTTT [GTGCAC_negctrl_site48],9.82
22,AATACACACCTGTGGGTGCTTATAATAAGCCACAAA,9.74

row,Sequence,gcPBM binding intensity (ln)
1,TATTTTTTTATTTATTGTACTTTAAAAAAAATTAAA [XGTACX_site6167],9.33
2,TAACAAATATTATTTTGTACATAATATATATATATA [XGTACX_site6898],9.41
3,TTATAAAAATATTACGCACACACAAACTTATTCATT [CACACA_site1970],10.2
4,TATATATATTAATTTATTTATTTGTTTATTTATTTA [CACACA_negctrl_site185],9.69
5,ATATATTTATATTATACACACAAAAATATTTTGTAT [CACACA_site6262],9.87
6,AAGAATTATAGAAACACACATACATACAGACATACA [CACACA_site1943],10.1
7,TAATTACCATATGGTACACACATATATATCTGTATA [CACACA_site5849],9.96
8,AATAATATCTGAAAATGTACATTTTATTATAAACAT [XGTACX_site8441],9.8
9,AAGAAGAGTTATTGTAGTACATTTTTAAATGTAATA [XGTACX_site7664],9.69
10,AGTTAAATGAATCAATACATAAATATGTATATATAT [TGCATGCA_negctrl_site539],9.61
11,TTTTTTTAATAAATTTATAACAATATGATAGGTGAC [CACACA_negctrl_site1783],9.49
12,TGAATCAATTGTTGCTGTACATAAGGTATACAATAA [XGTACX_site5127],9.56
13,TATTTGGGTATTTTTACACACATTAATATATATATA [CACACA_site9114],9.72
14,AAAGATAATAATATGCGTACATAAAAATATATGATA [XGTACX_site6884],9.77
15,ATAATGGAAAAAAAATATAATAATACGAAATAGGAA [TGCATGCA_negctrl_site64],9.96
16,TTATAAATTTTTAATAGTACATAAAATTAAAGGTAA [XGTACX_site760],9.19
17,ATGTGATAATTTAGGAGTACTGTCATAAGCATTTCT [XGTACX_site3091],9.62
18,TCATAAAAAGGAATCTTTAAGATATTTTATAAGCTC [XGTACX_negctrl_site18],9.4
19,TTTCTTTATTTATAATAATTTTTTATTAAAAATAGA [CACACA_negctrl_site1610],9.18
20,AGTGCATAATATTTATGTACGTATCACATATATTTT [XGTACX_site5166],9.64
21,AATAAATGTCTGTTAATGCACACGATATGTCTATAT [CACACA_site2351],9.94
22,AAAAATAAAATAAAATAAAATAAAAATAAAGAAAAA [CACACA_negctrl_site808],9.82
